From PMC4336329 (PLoS ONE, 2015)
In all, about 310,000 compounds went through this assay and about 2,200 (0.71%) showed an effect of 50% or more. Effects have a minus sign here. The list shows a part of the results.

Target: human ether-à-go-go-related gene (hERG) potassium channel (human, UniProt Q12809)
Assay: primary screen, population patch clamp on CHO cells stably expressing hERG

human ether-à-go-go-related gene (hERG) potassium channel, sequence (Q12809 whole entry, looked up): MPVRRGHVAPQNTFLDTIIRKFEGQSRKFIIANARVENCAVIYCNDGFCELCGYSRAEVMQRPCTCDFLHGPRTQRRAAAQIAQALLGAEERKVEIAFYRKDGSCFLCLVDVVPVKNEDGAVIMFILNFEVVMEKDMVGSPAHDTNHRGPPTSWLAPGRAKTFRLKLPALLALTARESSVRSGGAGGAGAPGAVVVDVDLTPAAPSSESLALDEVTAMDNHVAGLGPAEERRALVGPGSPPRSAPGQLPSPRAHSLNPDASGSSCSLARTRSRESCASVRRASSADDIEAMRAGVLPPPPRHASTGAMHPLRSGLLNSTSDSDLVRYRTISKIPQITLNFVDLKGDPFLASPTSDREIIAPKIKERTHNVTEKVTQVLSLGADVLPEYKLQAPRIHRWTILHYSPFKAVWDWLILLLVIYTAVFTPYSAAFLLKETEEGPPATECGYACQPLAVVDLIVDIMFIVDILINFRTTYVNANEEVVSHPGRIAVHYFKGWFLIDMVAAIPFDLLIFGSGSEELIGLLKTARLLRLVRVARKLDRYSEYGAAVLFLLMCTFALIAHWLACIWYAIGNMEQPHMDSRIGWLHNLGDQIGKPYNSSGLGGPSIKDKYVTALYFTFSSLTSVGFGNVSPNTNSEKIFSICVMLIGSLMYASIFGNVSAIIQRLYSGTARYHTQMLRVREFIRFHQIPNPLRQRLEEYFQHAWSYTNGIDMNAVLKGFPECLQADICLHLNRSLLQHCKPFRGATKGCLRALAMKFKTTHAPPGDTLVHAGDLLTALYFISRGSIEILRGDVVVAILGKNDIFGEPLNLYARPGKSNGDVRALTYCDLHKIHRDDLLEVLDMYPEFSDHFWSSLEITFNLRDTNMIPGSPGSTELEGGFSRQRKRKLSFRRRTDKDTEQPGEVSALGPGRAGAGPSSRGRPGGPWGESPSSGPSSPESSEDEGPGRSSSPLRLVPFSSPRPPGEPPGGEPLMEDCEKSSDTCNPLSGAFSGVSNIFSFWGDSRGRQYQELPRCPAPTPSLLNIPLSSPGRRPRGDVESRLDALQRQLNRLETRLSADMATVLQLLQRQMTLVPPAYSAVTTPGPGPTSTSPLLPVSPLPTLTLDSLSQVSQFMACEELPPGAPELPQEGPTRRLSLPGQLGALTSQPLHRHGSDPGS

SMILES	hERG current change (%, negative = inhibition) at 1uM [%]
CC(=O)Cc1nsc(NC(=O)C2Cc3ccccc3C(=O)O2)n1 (stereo not shown)	14.4
O=C(NCc1ccccc1Cl)C1CCN(c2ncnc3c2nc2n3CCCCC2)CC1	4.21
Cc1ccc(S(=O)(=O)N2CCCC2)s1	6.28
CS(=O)(=O)N(CCc1ccccc1)CC(=O)NCc1cccnc1	2.13
COc1cccc(Oc2ccc3nnc(C(F)(F)F)n3n2)c1	14.2
Cc1ccc(/C=C2/SC(=S)N(CCC(=O)N3CCN(C)CC3)C2=O)cc1	7.56
Cc1ccc(C)c(S(=O)(=O)N2CCN(C(=O)CSC(=S)N3CCCC3)CC2)c1	-0.507
Cc1noc(C)c1COc1cccc(C(=O)NCCc2c[nH]c3ccccc23)c1	9.09
O=C(/C=C/c1ccccc1[N+](=O)[O-])NNC(=O)c1ccncc1	5.38
Nc1ncccc1C(=O)OCC(=O)NC1CCCCCC1	7.78
CN(Cc1nc(-c2ccccc2)no1)C1CCOCC1	8.22
CC(=O)Nc1ccc(CN2CCCCCCC2)cc1	3.24
Cn1c(CCNC(=O)c2ccccc2)nc2cc(NC(=O)c3ccco3)ccc21	-1.52
CS(=O)(=O)/C(C#N)=C/c1c(-c2ccccc2)nc2n1CCS2	10.8
Cc1[nH]c2ccc(S(N)(=O)=O)cc2c1C	13.4
Cc1cc([N+](=O)[O-])ccc1Nc1nc2ccccc2n2cnnc12	11.6
O=C(CCn1c(=O)oc2ccccc21)NCCN1CCc2ccccc2C1	2.42
COc1ccc(S(=O)(=O)N(CC(=O)NCC2CCCO2)c2ccccc2)cc1OC (stereo not shown)	12.7
Cc1ccc(S(=O)(=O)NNC(=S)Nc2ccccc2)cc1	-0.0574
CN(C)c1ccc(C(CNC(=O)c2ccco2)N2CCCC2)cc1 (stereo not shown)	13.2

SMILES	hERG current change (%, negative = inhibition) at 1uM [%]
CCCCn1c(=O)[nH]c(=O)c2c1nc(-c1ccc(OCCC)c(OCC)c1)n2CCOC	0.889
CCOc1ccccc1C(=O)N(C)Cc1cc2ccccc2[nH]c1=O	13.9
COc1ccc(-c2nc(C#N)c(NCc3ccccc3Cl)o2)cc1OC	5.18
CCC(c1nnnn1C1CCCC1)N1CCC(C(N)=O)CC1 (stereo not shown)	29.5
O=c1nc(/C=C/c2cccn2-c2ccc([N+](=O)[O-])cc2)cc(C(F)(F)F)[nH]1	11.5
O=C(O)COCc1nc2ccccc2s1	8.45
CCOc1ccc(NC(=O)CN(c2ccc(OC)cc2)S(C)(=O)=O)cc1	8.87
COc1ccc(NC(=O)C2=CCN(S(=O)(=O)c3ccccc3)CC2)cc1OC	5.44
C=COCCNC(=S)N1CCOCCOCCN(C(=S)NCCOC=C)CCOCCOCC1	11.4
N#Cc1c(-c2ccc(Cl)cc2Cl)nc2n(c1=O)CCS2	7.79
COc1cc(C2=NOC(C(=O)NCc3cccnc3)C2)cc(OC)c1OC (stereo not shown)	8.35
NC(C(=O)O)C1CC(Cl)=NO1 (stereo not shown)	14.9
CCN(CC)C(=O)Cn1cc(C(=O)C(=O)NCCc2ccc(S(N)(=O)=O)cc2)c2ccccc21	-5.74
COc1ccc(C(CNC(=O)COc2ccccc2C#N)N2CCOCC2)cc1 (stereo not shown)	10.5
Cc1ccc(NS(=O)(=O)c2ccc3c(c2)c(=O)n(C)c(=O)n3C)cc1F	10.1
O=C1[C@@H]2CSCN2C(=O)CN1Cc1ccc(F)cc1	7.25
CCOC(=O)c1c(C)[nH]c(C)c1S(=O)(=O)N(C)CC(=O)Nc1ccccc1	16.5
COc1ccc(CCNC(=O)CCn2c(=O)[nH]c3cc(OC)c(OC)cc3c2=O)cc1OC	2.09
CCOC(=O)C1(CCOc2ccccc2)CCN(Cc2cc(OC)ccc2OC)CC1	-60.1
C=CCN1C(=O)C(O)(CC(=O)c2ccco2)c2cc(Br)ccc21 (stereo not shown)	13.5

SMILES	hERG current change (%, negative = inhibition) at 1uM [%]
N#CCC(=O)N/N=C/c1c(-c2ccccc2)n(-c2ccccc2)c2ccccc12	12.6
O=C1CC(N2CCN(c3ccccn3)CC2)C(=O)N1c1ccc(Cl)cc1 (stereo not shown)	-4.88
COCCCNC(=O)Cn1cc2c(n1)CCCCC2	12.2
Cc1ccc(Cl)cc1NC(=O)COC(=O)Cn1cnc2c1c(=O)n(C)c(=O)n2C	9.94
Cc1cc(N/N=C/c2ccc(F)cc2)nc(-n2nc(C)cc2C)n1	14.2
Cn1cc(Br)c(C(=O)Nc2sc3c(c2C(N)=O)CCCC3)n1	16.7
CC(C)O/N=C1\C(=O)N(c2ccccc2)c2ccccc21	0.997
Cn1nnnc1SCC(=O)Nc1cccc(S(=O)(=O)N2CCCC2)c1	13.1
COC(=O)C1CCN(C(=O)Cn2nnc(-c3ccccc3)n2)CC1	14.2
O=C1CC(c2ccccc2)n2nc(NC(=O)c3ccccn3)nc2N1 (stereo not shown)	4.17
Cc1cc(C)n(-c2ccc(C(=O)Nc3ccc(N4CCOCC4)cc3)cc2)n1	3.93
O=C(O)CCCn1c(=O)[nH]c2ccccc2c1=O	6.11
COc1cc(CNc2ccc3[nH]c(=O)[nH]c3c2)ccc1OCc1ccc(F)cc1	15.4
CCC(C(=O)N/N=C(\C)c1cccnc1)c1ccccc1 (stereo not shown)	8.84
COc1ccc2nc(SCc3nc(N)nc(Nc4ccccc4)n3)[nH]c2c1	-2.91
O=C1C=CC(=O)N1CCCCCCN1C(=O)C=CC1=O	20.7
Nc1cc(Cl)cc(C(=O)O)c1Cl	12.5
COc1cc2c(cc1OC)C(c1ccncc1)CC(=O)N2 (stereo not shown)	8.43
